Assay results taken from the supplement of paper PMC9927326.
MIC of clinical C. albicans isolates, CLSI broth microdilution (ranges and time not stated); higher = less susceptible. Call: susceptible or wild type [S] / resistant or non-wild type [R] by CLSI breakpoints or epidemiological cut-offs; intermediate and dose-dependent carry no call here (the paper groups them with resistant). '<=' and '>=' mark each drug's lowest and highest value, inferred; the source prints them plain. Isolates are numbered anew.

Legend:
Test in all cases: CLSI broth microdilution.
[1] = compound: Nc1[nH]c(=O)ncc1F [flucytosine]
[2] = compound: CCCCCOc1ccc(-c2cc(-c3ccc(C(=O)N[C@H]4C[C@@H](O)[C@@H](O)NC(=O)[C@@H]5[C@@H](O)[C@@H](C)CN5C(=O)[C@H]([C@H](O)CC(N)=O)NC(=O)[C@H]([C@H](O)[C@@H](O)c5ccc(O)c(OS(=O)(=O)O)c5)NC(=O)[C@@H]5C[C@@H](O)CN5C(=O)[C@H]([C@@H](C)O)NC4=O)cc3)no2)cc1 [micafungin]
[3] = compound: CC[C@@H]([C@H](C)O)n1ncn(-c2ccc(N3CCN(c4ccc(OC[C@@H]5CO[C@@](Cn6cncn6)(c6ccc(F)cc6F)C5)cc4)CC3)cc2)c1=O [posaconazole]
[4] = compound: CCCCCOc1ccc(-c2ccc(-c3ccc(C(=O)N[C@H]4C[C@@H](O)[C@@H](O)NC(=O)[C@@H]5[C@@H](O)[C@@H](C)CN5C(=O)[C@H]([C@@H](C)O)NC(=O)[C@H]([C@H](O)[C@@H](O)c5ccc(O)cc5)NC(=O)[C@@H]5C[C@@H](O)CN5C(=O)[C@H]([C@@H](C)O)NC4=O)cc3)cc2)cc1 [anidulafungin]
[5] = compound: C[C@@H](c1ncncc1F)[C@](O)(Cn1cncn1)c1ccc(F)cc1F [voriconazole]
[6] = compound: CCC(C)n1ncn(-c2ccc(N3CCN(c4ccc(OCC5COC(Cn6cncn6)(c6ccc(Cl)cc6Cl)O5)cc4)CC3)cc2)c1=O [itraconazole]
[7] = compound: OC(Cn1cncn1)(Cn1cncn1)c1ccc(F)cc1F [fluconazole]
[8] = compound: CC[C@H](C)C[C@H](C)CCCCCCCCC(=O)N[C@H]1C[C@@H](O)[C@@H](NCCN)NC(=O)[C@@H]2[C@@H](O)CCN2C(=O)[C@H]([C@H](O)CCN)NC(=O)[C@H]([C@H](O)[C@@H](O)c2ccc(O)cc2)NC(=O)[C@@H]2C[C@@H](O)CN2C(=O)[C@H]([C@@H](C)O)NC1=O [caspofungin]
[9] = compound: C[C@@H]1[C@H](O)[C@@H](C)/C=C/C=C/C=C/C=C/C=C/C=C/C=C/[C@H](O[C@@H]2O[C@H](C)[C@@H](O)[C@H](N)[C@@H]2O)C[C@@H]2O[C@](O)(C[C@@H](O)C[C@@H](O)[C@H](O)CC[C@@H](O)C[C@@H](O)CC(=O)O[C@H]1C)C[C@H](O)[C@H]2C(=O)O [amphotericin B]

Candida albicans isolate 246 (Erg11p: WT, Fur1p: WT, Tac1p: I558V,A377V,F189S,N174D,M170I,K87N)
MIC [1]: ≤ 0.06 mg/L [S] | MIC [2]: 0.015 mg/L [S] | MIC [3]: 0.015 mg/L [S] | MIC [4]: 0.03 mg/L [S] | MIC [5]: ≤ 0.008 mg/L [S] | MIC [6]: 0.03 mg/L [S] | MIC [7]: 0.25 mg/L [S] | MIC [8]: 0.03 mg/L [S] | MIC [9]: 0.5 mg/L [S]

Candida albicans isolate 263 (Erg11p: K342R,E266D, Fur1p: WT, Tac1p: I558V,A377V,F189S,N174D,M170I,K87N)
MIC [1]: ≤ 0.06 mg/L [S] | MIC [2]: 0.015 mg/L [S] | MIC [3]: 0.03 mg/L [S] | MIC [4]: 0.06 mg/L [S] | MIC [5]: ≤ 0.008 mg/L [S] | MIC [6]: 0.06 mg/L [S] | MIC [7]: 0.5 mg/L [S] | MIC [8]: 0.03 mg/L [S] | MIC [9]: 0.25 mg/L [S]

Candida albicans isolate 321 (Erg11p: V488I,E266D, Fur1p: WT, Tac1p: N896S,L695F,I558V,F189S,L131I)
MIC [1]: 0.12 mg/L [S] | MIC [2]: ≤ 0.008 mg/L [S] | MIC [3]: 0.03 mg/L [S] | MIC [4]: 0.03 mg/L [S] | MIC [5]: 0.015 mg/L [S] | MIC [6]: 0.06 mg/L [S] | MIC [7]: 1 mg/L [S] | MIC [8]: 0.06 mg/L [S] | MIC [9]: 0.5 mg/L [S]

Candida albicans isolate 143 (Erg11p: V488I,E266D, Fur1p: WT, Tac1p: N896S,M170V,S108N)
MIC [1]: ≤ 0.06 mg/L [S] | MIC [2]: 0.015 mg/L [S] | MIC [3]: 0.03 mg/L [S] | MIC [4]: ≤ 0.015 mg/L [S] | MIC [5]: ≤ 0.008 mg/L [S] | MIC [6]: 0.03 mg/L [S] | MIC [7]: 0.25 mg/L [S] | MIC [8]: 0.03 mg/L [S] | MIC [9]: 0.5 mg/L [S]

Candida albicans isolate 89 (Erg11p: E266D, Fur1p: WT, Tac1p: C908Y,A377V,N174D,M170I,I109N,K87N)
MIC [1]: ≤ 0.06 mg/L [S] | MIC [2]: 0.015 mg/L [S] | MIC [3]: 0.015 mg/L [S] | MIC [4]: 0.03 mg/L [S] | MIC [5]: ≤ 0.008 mg/L [S] | MIC [6]: 0.03 mg/L [S] | MIC [7]: 0.25 mg/L [S] | MIC [8]: 0.06 mg/L [S] | MIC [9]: 1 mg/L [S]

Candida albicans isolate 87 (Erg11p: E266D,D153E, Fur1p: WT, Tac1p: 558V,A377V,F189S)
MIC [1]: ≤ 0.06 mg/L [S] | MIC [2]: ≤ 0.008 mg/L [S] | MIC [3]: 0.03 mg/L [S] | MIC [4]: 0.03 mg/L [S] | MIC [5]: ≤ 0.008 mg/L [S] | MIC [6]: 0.03 mg/L [S] | MIC [7]: 0.25 mg/L [S] | MIC [8]: 0.03 mg/L [S] | MIC [9]: 0.5 mg/L [S]

Candida albicans isolate 336 (Erg11p: V437I,E266D, Fur1p: WT, Tac1p: I895T,F189S,L131I)
MIC [1]: 0.12 mg/L [S] | MIC [2]: 0.015 mg/L [S] | MIC [3]: 0.03 mg/L [S] | MIC [4]: ≤ 0.015 mg/L [S] | MIC [5]: 0.03 mg/L [S] | MIC [6]: 0.06 mg/L [S] | MIC [7]: 0.25 mg/L [S] | MIC [8]: 0.03 mg/L [S] | MIC [9]: 0.5 mg/L [S]

Candida albicans isolate 299 (Erg11p: WT, Fur1p: WT, Tac1p: A377V,F189S,N174D,M170I,K87N)
MIC [1]: ≤ 0.06 mg/L [S] | MIC [2]: 0.015 mg/L [S] | MIC [3]: 0.015 mg/L [S] | MIC [4]: 0.12 mg/L [S] | MIC [5]: ≤ 0.008 mg/L [S] | MIC [6]: 0.03 mg/L [S] | MIC [7]: 0.25 mg/L [S] | MIC [8]: 0.06 mg/L [S] | MIC [9]: 0.5 mg/L [S]

Candida albicans isolate 11 (Erg11p: V488I,E266D, Fur1p: WT, Tac1p: N896S,I895T)
MIC [1]: ≤ 0.06 mg/L [S] | MIC [2]: 0.015 mg/L [S] | MIC [3]: 0.015 mg/L [S] | MIC [4]: 0.06 mg/L [S] | MIC [5]: ≤ 0.008 mg/L [S] | MIC [6]: 0.03 mg/L [S] | MIC [7]: 0.5 mg/L [S] | MIC [8]: 0.06 mg/L [S] | MIC [9]: 0.25 mg/L [S]

Candida albicans isolate 1 (Erg11p: Y132H,T123I, Fur1p: R101C, Tac1p: WT)
MIC [1]: 0.5 mg/L [S] | MIC [2]: ≤ 0.008 mg/L [S] | MIC [3]: 0.06 mg/L [S] | MIC [4]: ≤ 0.015 mg/L [S] | MIC [5]: 0.25 µg/mL | MIC [6]: 0.12 mg/L [S] | MIC [7]: 4 µg/mL | MIC [8]: 0.015 mg/L [S] | MIC [9]: 0.25 mg/L [S]

Candida albicans isolate 121 (Erg11p: E266D, Fur1p: WT, Tac1p: N896S,I558V,A377V,F189S,N174D,M170I,K87N)
MIC [1]: ≤ 0.06 mg/L [S] | MIC [2]: 0.015 mg/L [S] | MIC [3]: 0.03 mg/L [S] | MIC [4]: ≤ 0.015 mg/L [S] | MIC [5]: 0.015 mg/L [S] | MIC [6]: 0.03 mg/L [S] | MIC [7]: 0.5 mg/L [S] | MIC [8]: 0.03 mg/L [S] | MIC [9]: 0.5 mg/L [S]

Candida albicans isolate 170 (Erg11p: G465S,Y132H, Fur1p: R101C, Tac1p: WT)
MIC [1]: 0.5 mg/L [S] | MIC [2]: 0.03 mg/L [S] | MIC [3]: 0.015 mg/L [S] | MIC [4]: ≤ 0.015 mg/L [S] | MIC [5]: 0.12 mg/L [S] | MIC [6]: 0.06 mg/L [S] | MIC [7]: 1 mg/L [S] | MIC [8]: 0.03 mg/L [S] | MIC [9]: 0.5 mg/L [S]

Candida albicans isolate 291 (Erg11p: D153E, Fur1p: WT, Tac1p: WT)
MIC [1]: ≤ 0.06 mg/L [S] | MIC [2]: 0.015 mg/L [S] | MIC [3]: 0.03 mg/L [S] | MIC [4]: ≤ 0.015 mg/L [S] | MIC [5]: ≤ 0.008 mg/L [S] | MIC [6]: 0.06 mg/L [S] | MIC [7]: 0.25 mg/L [S] | MIC [8]: 0.03 mg/L [S] | MIC [9]: 0.5 mg/L [S]

Candida albicans isolate 253 (Erg11p: Y132H,T123I, Fur1p: R101C, Tac1p: WT)
MIC [1]: 0.5 mg/L [S] | MIC [2]: ≤ 0.008 mg/L [S] | MIC [3]: 0.06 mg/L [S] | MIC [4]: ≤ 0.015 mg/L [S] | MIC [5]: 0.5 µg/mL | MIC [6]: 0.12 mg/L [S] | MIC [7]: 4 µg/mL | MIC [8]: 0.015 mg/L [S] | MIC [9]: 0.5 mg/L [S]

Candida albicans isolate 262 (Erg11p: Q295E,E266D, Fur1p: WT, Tac1p: N896S)
MIC [1]: ≤ 0.06 mg/L [S] | MIC [2]: 0.015 mg/L [S] | MIC [3]: 0.03 mg/L [S] | MIC [4]: 0.06 mg/L [S] | MIC [5]: 0.015 mg/L [S] | MIC [6]: 0.06 mg/L [S] | MIC [7]: 1 mg/L [S] | MIC [8]: 0.06 mg/L [S] | MIC [9]: 0.5 mg/L [S]
